B1: DOMAIN_18312 (protein, listed as Monodelphis domestica)
chain: IQGSLTFKDVAVDFTQEEWCLLDHSQKELYLEVMLENVQNLLSVGLPVPREYCTSYFQQEKARWLLEQKCPRSSSPEAETN
B2: DOMAIN_18356 (protein, listed as Monodelphis domestica)
chain: B1 chain with E17D, H24N, C53L, Y56C, E60G, K61E, R63P, K69E, C70V, S75C
B3: DOMAIN_18048 (protein, listed as Aotus trivirgatus)
chain: AQKVLTFRDVAIEFSLEEWKFLDPAQQNLYRDVMLENYRNLFSIGLTVSKPGLITCLEQRKAPWNLKRREAVDGHIFFAEY
B4: DOMAIN_18161 (protein)
chain: FQGSVTFTDVAIDFSQEEWRWLQPAQRDLYRCVMLENYGHLVSLGLSISKPDVVSLLEQGKEPWLGKRNVNRDLFSVSESR
modifications: Cercocebus atys
B5: DOMAIN_18243 (protein, listed as Felis catus)
chain: AQESLTLEDVAVDFSREEWRLLAPAQKDLYRDVMLENYRNLVSVGHQASKPDVLARLERGEEPWAIEEEVRSGTSPETGKV
B6: DOMAIN_18206 (protein, listed as Monodelphis domestica)
chain: PQGLVTFRDVAVDFTREEWRLLSPRQKELYKEVMLENAGNLLSLGLPVPREDVISYFEQKDVPWMLEQKALRSFCPGGPVK
B7: DOMAIN_17871 (protein, listed as Leptonychotes weddellii)
chain: AHGSVMFNDVSIVFSQEEWEYLDLEQRDLYRDVMLENYSNLVSLGCFISKPDVISLLEQGKEPWKVVRKGRRRYPDLETRY
B8: DOMAIN_18100 (protein, listed as Neomonachus schauinslandi)
chain: AQGHVTFEDVAVYFSWEEWGLLDEAQRLLYRDVMLENFSLMASLGLASSMTHEITQLEWWREPFLPPCGVMTAAMPRDGRQ
B9: DOMAIN_18345 (protein, listed as Monodelphis domestica)
chain: SQGSITFKDVAVDFTQEEWCLLDHSQKELYLEVMLENVQNLLSVGLPVPRENFISCLQQGKAPWLLAQKDSRNSCLEAKTN
B10: DOMAIN_18136 (protein, listed as Monodelphis domestica)
chain: IQESVTFKDVSVDFTWEEWRHLDPAQRDLYRNVMLENYENLVSVGISVSTVDMISLLEKRDGPWMPEGEVSGAICPDSLNE
B11: DOMAIN_18323 (protein, listed as Monodelphis domestica)
chain: PQESVTFEDVAVYFTQKEWEGLAPAQRALYRDVMLENYGNLVSLAFLFPKPAVISQLEQGEKPWIQTPQRPLDKKKTYKGC
B12: DOMAIN_18272 (protein, listed as Neomonachus schauinslandi)
chain: SLESDVFTDVAIVFSQEEWEQLAPAQRDLYRDVMLETYSNLVSLGLAIAKPDVISFLEEGKEPWVVEKTSRGGLCPVLESR
B13: DOMAIN_17798 (protein, listed as Pongo sp.)
chain: VQEPVTFKDVAVDFTQEEWGQLDLVQRTLYRDVMLETYGHLLSVGNQIAKPEVISLLEQGEEPWSVEQACPQRTCSEWVRN
B14: DOMAIN_18325 (protein, listed as Monodelphis domestica)
chain: SQGSITFKDVAVDFTQEEWCLLDPSQKELYREVMLENVQNLLFVETNFEVKEISTKQSLFVEGSGPPRGKNKGPCDFLLRE
B15: DOMAIN_18332 (protein, listed as Monodelphis domestica)
chain: NLEAVTFQDVAVEFTCEEWRHLAPPQKELYRDVMLENYKNLVRLGLAVSKPDVISQLERREAPWMPGGIQRSRCPDWEASC
B16: DOMAIN_18483 (protein, listed as Monodelphis domestica)
chain: GQEEVTFKDVAVDFTREEWRLLSPPQKELYKEVMVENARNLLSVGLPAPTKDVLSYLKKRGAPVMLEQEGLRNYFPEGEIR
B17: DOMAIN_17925 (protein, listed as Otolemur garnettii)
chain: LPDSLTFTDVAIDFSQDEWEWLSLAQRSLYRKVMLENYMNLVSVGLCISKPDVISLLEQEKEPWMVTEQITRGLCADLEYM
B18: DOMAIN_18385 (protein, listed as Neomonachus schauinslandi)
chain: SQGLVTFRDVALDFSQEEWEWLDPSQKDLYRDVMLENYRNLVWLGLSISKPNMISLLEQGKEPWMVEKEMSDGQCADWESW
B19: DOMAIN_18458 (protein, listed as Monodelphis domestica)
chain: MLFQELVTFKDVAVDFTQEEWKCLAPSQKELYREVMLENYRNLVSLGRAVSKPELIHQLERGETPWRPKGDGWRNSLRPGE
B20: DOMAIN_17903 (protein, listed as Pongo sp.)
chain: EMGLLTFRDIAIEFSLAEWQCLDHAQRNLYRDVMLENYRNLVSLGIAVSKPDLITCLEQNKEPRNIKRNEMVAKHPGREKS
B21: DOMAIN_18502 (protein, listed as Myotis davidii)
chain: MVFEDVAVYFSREEWGLLDSAQRALYRQVMLENFALVASLGLSASRPRIVLQLERGEEPWVLSGLDVALARDAQRRPGPGE
B22: DOMAIN_18498 (protein, listed as Aotus trivirgatus)
chain: VAFEDVAVNFTQEEWALLDPSQKNLYREVMQETLRNLASIGQRWSNQNAEDKHQNPRRNLRRLIGERLFQSKESHQHVEVL
B23: DOMAIN_18214 (protein, listed as Physeter macrocephalus)
chain: APLPLTFEDVAVYFSEQEWRNLEAWQKELYKQVMRTNYEILVSLDDGLPKPELISWLEQGRELFKNWGESQKSGNIICFSA
B24: DOMAIN_18441 (protein, listed as Felis catus)
chain: AQAPLSFEDVAVSFSREEWRLLVPAQKDLYRDVMLENYRNLVSVGYQASEPGSLFQLEHAGPLRAVEGAAPRPPCPEEIWE
B25: DOMAIN_18303 (protein, listed as Monodelphis domestica)
chain: AQEVVTFQDVAVDFTREEWRLLSPPQKELYKEVMLENARNLLSVGLPAPPDDVVSYLEQREGPSMLDQEDLRTCGPEGEIR
B26: DOMAIN_17873 (protein, listed as Leptonychotes weddellii)
chain: QAEVTFEDVAVLFSREEWGRLGPAQRGLYRDVMLETYRNLVSLGAGPAGPKPGVITQLEQGDEPWVLDAQGAKGKERLRVS
B27: DOMAIN_18203 (protein, listed as Monodelphis domestica)
chain: AQVLVTFQDVAVDFTQEEWRLLDPGQKELYKEVMLDNAQNMLFLGLPVPREDWFSHFHEGGASWMLEGEDPSNSGLDGERR
B28: DOMAIN_17890 (protein)
chain: RLESVTFEDVAVYFTQNQWASLDPAQRALYGEVMLENYANVASLVAFPFPKPALISHLERGEAPWGPDPWDTKIPRGISQG
modifications: Cercocebus atys
B29: DOMAIN_18433 (protein, listed as Aotus trivirgatus)
chain: EPGTVSFGDVAVYFSREEWGCLRPAQRALYRDVMRETYSHLGALGVGGSKPALISWVEEEAELWGPAAQDPEVAKRPTEAD
B30: DOMAIN_18103 (protein, listed as Monodelphis domestica)
chain: PQGSVTFRDVAVNFSQDEWGRLDPSQKELYREVMLENYHNLVCLGLAASKPDVIDQLERGEAPWMPGIGCPDQKIRSDTQE
B31: DOMAIN_18155 (protein, listed as Sarcophilus harrisii)
chain: FQESLTFKDVAVDFTYEEWQQLNPDQRYLYRDVMLENYKNLVFLGHQISKPDVISQLEQGKEPWPIEREIFTYSCRDWETK
B32: DOMAIN_18083 (protein, listed as Papio anubis)
chain: FQGSVSFKDVTVGFSQEEWQHLDPSQRALYRDVMLENYSNLVSVGYCVHKPEVIFRLEQGEEPWRLEEEFPSQSFPEVWTA
B33: DOMAIN_18426 (protein, listed as Physeter macrocephalus)
chain: B32 chain with G3E, S4L, S15T, S25T, A28S, H49T, R65I, S72R, T80K, A81I
B34: DOMAIN_18428 (protein, listed as Physeter macrocephalus)
chain: MAFRDVAVDFTQEEWMLLSPAQRSLYREVMLENYSNLVSLGIPFSKPKLITQLEQGKETWREERKCPPANGPPEPKPELHL
B35: DOMAIN_17898 (protein, listed as Enhydra lutris)
chain: QEPVTFADVAVLFTPEEWMFLDSAQRSLYRDVMLENYRNLASVGAGDQLGKPSMLSLSEPGEELWAPERRTFPGTRPEPQH
B36: DOMAIN_10870 (protein)
chain: SQHLVTFEDVAVNFTQEEWTLLDQTQRDLYRDVMLENYQNLMALGSESCKPHVNSPLEGAEELRTRARRILQSEFMAESDL
modifications: Vicugna pacos

Where a chain is given by its changes, count along the chain named.

The test system of one experiment is HBEGF locus. It is filed as cell-based, human. To be noted: high-throughput screen of dXR repression of the HBEGF gene; abundance of each domain in the library before and after diphtheria toxin selection; HEK293T cells.
As to B1, the “Log2 (fold change)” value is 2.8473. Same read-out and setting: for B2 the value was 3.1967; for B3, 2.5186; for B4, 2.6663. Take B5: the “Log2 (fold change)” value is 3.5331.

With B6, the “Log2 (fold change)” value is reported as 2.3929. Still for that read-out and setting: the result for B7 reads 3.1894; that for B8, 2.3606. Same read-out and setting: for B9 the value was 3.349; for B10, 2.7288; for B11, 2.3956. Turning to B12, the “Log2 (fold change)” value is 2.9141. As for B13, the “Log2 (fold change)” value came to 3.3458. For B14, the “Log2 (fold change)” value came out at 2.7636.

For the molecule B15, the “Log2 (fold change)” value came out at 3.4328. Regarding B16, the “Log2 (fold change)” value was found to be 2.8259. The same measure, in the same setting: the result for B17 reads 2.7982; that for B18, 2.1472; that for B19, 3.1061. Same read-out and setting: the result for B20 reads 2.4683; that for B21, 3.4127. Still for that read-out and setting: the result for B22 reads 2.7354; that for B23, 2.6389; that for B24, 3.7534. As for B25, the “Log2 (fold change)” value is recorded as 2.9174.

On to B26, for which the “Log2 (fold change)” value worked out at 3.4076. Turning to B27, the “Log2 (fold change)” value came out at 3.7912. Regarding B28, the “Log2 (fold change)” value was 4.2356. As for B29, the “Log2 (fold change)” value is 3.4614. On the same count and under the same terms, for B30 the value was 2.7334. The same measure, in the same setting: for B31 the value was 2.7528; for B32, 2.9283; for B33, 2.8011.

B34: the “Log2 (fold change)” value is on record as 2.5903.

Turning to B35, the “Log2 (fold change)” value is 3.2117.

The experiment is the same for the next values; noted with them: high-throughput screen of dXR repression of the HBEGF gene; change in abundance of each domain in the library before and after diphtheria toxin selection.
In the case of B36, the “Log2 (fold change)” value was determined as 2.5964.

These data come from patent publication US12551573B2, “Compositions and methods for the targeting of PCSK9” (Scribe Therapeutics Inc., priority 2022, dated 2026).
